# Reference: the supplement of paper PMC3334620
# Over roughly 33,000 sequences, “E-score (-0.5 to 0.5)” has its median near -0.035; the highest 2% begin near 0.34. The list shows a part of the results.
# Target: T1, Mot3 (UniProt P54785)
# T1 sequence: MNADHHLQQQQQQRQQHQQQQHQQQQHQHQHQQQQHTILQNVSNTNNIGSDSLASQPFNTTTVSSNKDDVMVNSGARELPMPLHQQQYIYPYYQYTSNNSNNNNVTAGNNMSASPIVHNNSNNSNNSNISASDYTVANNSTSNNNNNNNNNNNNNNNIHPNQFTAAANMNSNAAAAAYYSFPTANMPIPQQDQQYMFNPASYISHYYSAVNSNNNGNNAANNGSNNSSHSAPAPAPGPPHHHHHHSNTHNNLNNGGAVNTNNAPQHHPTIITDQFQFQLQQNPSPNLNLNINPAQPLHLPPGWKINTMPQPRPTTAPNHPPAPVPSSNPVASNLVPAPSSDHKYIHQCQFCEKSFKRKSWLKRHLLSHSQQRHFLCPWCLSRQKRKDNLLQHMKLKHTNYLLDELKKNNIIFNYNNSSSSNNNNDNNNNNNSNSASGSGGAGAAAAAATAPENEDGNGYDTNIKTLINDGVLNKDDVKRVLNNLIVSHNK
# Assay: PBM E-score (8-mer binding enrichment) (E-score (-0.5 to 0.5)); higher = stronger / more preferred TF binding; most listed sequences are background and not binding sites
# Details: protein concentration: 200 nM; construct: GST-full length
# Summary of the method: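 Using PURExpress in vitro transcription/translation, GST-tagged yeast transcription factors were made in full-length or DNA-binding-domain form. These were applied at about 100-200 nM to double-stranded universal all-10-mer Agilent arrays, and bound protein was detected with fluorescent anti-GST. Scans were normalised with masliner before the Universal PBM Analysis Suite assigned E-scores to ungapped eight-base words pooled with their reverse complements.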
row,Sequence,PBM E-score
1,GATAAAGC,-0.0526
2,AAGCATGT,0.285
3,CAGCGGTC,-0.18
4,ACTTCCGG,0.0138
5,ACCTGAAA,0.188
6,AAGGGAGC,-0.234
7,AGTACATG,0.289
8,GTAGTCGA,0.0317
9,ATTACTGG,0.0729
10,ACTATGTG,0.0709
11,ACCTGACA,0.105
12,GGGTGTAC,-0.0148
13,CTCAGCGA,-0.109
14,CCTCGACC,-0.126
15,AGCAAGCC,-0.225
16,CCGGATGA,-0.198
17,AAGCGTGA,0.00227
18,ATGAGGTC,-0.181
19,AGTGGTCA,-0.356
20,CAAACGAA,0.0627
21,ACTCAAAG,0.077
22,CCACCCGG,-0.108
23,AACAAACT,0.0983
24,AGACAAAC,0.0316
25,CGTCGAAC,-0.00595

row,Sequence,PBM E-score
1,AATAGGCC,-0.0184
2,AACAGGTA,0.269
3,CTAGTGGC,-0.282
4,ACATGCAG,0.232
5,CTACCGAG,-0.131
6,CTTTAATA,0.131
7,CGCGGCAG,-0.035
8,GACAAAGC,-0.0144
9,AATGAGGG,-0.146
10,CTTGCACA,0.0256
11,CCCACGTC,-0.187
12,GATCGAGC,-0.2
13,GACCCCTA,-0.106
14,ACTGTTTC,-0.107
15,AGCCCGAC,-0.185
16,ACCTATCT,0.152
17,AAATTTGG,0.135
18,ATGAGTCC,-0.159
19,ATAAGCGC,-0.0498
20,CAGTTCCG,-0.282
21,CTGCACTC,-0.271
22,AGACCCCG,-0.188
23,AGAGCCAT,-0.142
24,GCCAGTCC,-0.315
25,CGTCTAAG,-0.145

row,Sequence,PBM E-score
1,AACCTATA,0.277
2,AGCTGGTC,-0.126
3,CTTGTCGA,0.0845
4,CCAAGACG,-0.236
5,ACTGTCCA,0.122
6,ACGCGTAT,0.286
7,GGAGTAGA,-0.144
8,TATCGATA,-0.0819
9,ACCTGGAT,-0.0359
10,AGCCTAAG,0.0457
11,CACACAGA,0.129
12,GTTGTCTA,0.19
13,ATCGACAG,-0.125
14,CTGAGGCA,0.257
15,AACGATAT,0.175
16,CGTAAAAG,0.183
17,CGATGCGC,-0.0409
18,CAACTCAA,0.11
19,ATACTATA,-0.0318
20,AAAATCCG,0.00192
21,GCGTCTGA,-0.0243
22,AAAATCGA,-0.119
23,GCGTCAAC,0.109
24,CACTAAGC,-0.25
25,AGCTTGAT,-0.114

row,Sequence,PBM E-score
1,ATAGCAAG,0.0209
2,AGTGCCGG,0.0259
3,AACCGTGT,0.294
4,ACGAGACG,-0.00429
5,AAACCCAT,0.109
6,GTTTGCCA,-0.0311
7,ATGATGGG,-0.139
8,CGGGGACA,-0.141
9,CACGCAAG,0.116
10,ACTGCACC,-0.0741
11,GTTAGTCA,0.044
12,CGATCTTA,-0.0275
13,ACGGTCCT,-0.195
14,CGAAGAGC,-0.106
15,TTACGGAA,0.0689
16,TAGTCAAA,0.015
17,CATTGAGC,-0.194
18,CCGCGTAA,0.336
19,ATGCGCTA,-0.0896
20,CTTAAGAC,-0.0312
21,AATTATAT,0.198
22,AAAGTGGG,-0.0287
23,CAGCTAGC,-0.206
24,AGAACAAA,0.175
25,CGCGCGAG,-0.219

row,Sequence,PBM E-score
1,AGTCCTGA,-0.179
2,GCTCTATA,-0.0578
3,CGGTTTAC,0.134
4,TTTAGAAA,0.118
5,CGATCTCC,-0.257
6,CTGACTGA,-0.0202
7,AATGGACT,-0.116
8,CCTTCCCC,-0.107
9,CGTAACCA,0.0907
10,CGGAACCG,-0.249
11,AAACGTTA,0.152
12,CCAAGGGC,-0.163
13,ACACCAGA,0.101
14,TCAGCTAA,-0.198
15,CTAATCTC,-0.0443
16,GACCTGAA,-0.107
17,CACGAGAG,-0.0248
18,AATGGGAT,-0.256
19,GATACATA,0.252
20,CGCATGTC,0.146
21,TGGGTAAA,-0.0942
22,CCAAACGC,-0.125
23,GACTCCGA,-0.00932
24,GAGAAATC,-0.077
25,ACGTCTCC,0.0151

row,Sequence,PBM E-score
1,CGGCGACA,-0.259
2,ACGTTGTG,0.137
3,AATGGGAG,-0.0219
4,AAGCCCGT,-0.0844
5,CTTCAGCA,-0.076
6,GTCTTGAA,-0.133
7,AAGACTAG,-0.0988
8,ATCTTTGA,-0.086
9,GCCGACAA,-0.112
10,ACCCGATG,-0.0404
11,GCACAGCC,-0.251
12,TAAAAACA,0.257
13,AATCGGTG,-0.0687
14,AATAGCAG,-0.039
15,AGGACACC,0.0146
16,ATTCTATC,0.0201
17,GTTCCAAA,0.0351
18,CTAGGGTA,-0.133
19,ACCTCGAC,-0.0664
20,GATCATGC,-0.358
21,AATAAACA,0.26
22,AGGTGGGA,-0.105
23,ACCGCTGA,-0.0199
24,GGCATATA,0.0734
25,AGTTGCCC,0.144

row,Sequence,PBM E-score
1,ACATTGAT,0.117
2,GGGAAAAA,-0.123
3,AGCCCACC,-0.268
4,ACAGCGCG,0.129
5,ATCTGTGC,0.174
6,CGAGGAGA,-0.317
7,CGCGCCTC,-0.152
8,AGTAATGA,0.123
9,GCCCGACC,-0.361
10,AGTAGATA,0.0664
11,AAGTCAGT,-0.0821
12,AGGAAGTC,-0.25
13,AAGGCAAG,0.485
14,GCTGGAAC,-0.289
15,GCACGTGC,0.252
16,ACACCAAA,0.132
17,AGGTAACC,0.321
18,CGGATTCC,-0.181
19,CACGCCAC,0.0438
20,AAGCACGA,0.00749
21,CTGATTCC,-0.0534
22,GAGGGCGA,-0.383
